Assay results as given in PubChem BioAssay AID1347165 (National Center for Advancing Translational Sciences (NCATS), 2019).
About 5,700 (2.6%) of roughly 220,000 compounds were called active. The shares of active, inactive and inconclusive entries below differ from those in the screen. Calls come from the whole dose curve; as a rule, active = well fitted inhibition curve with a large enough effect; inconclusive = small, poorly fitted or top-dose-only effect; inactive = no such curve, though single readings can be large or run the other way. A potency beside an inconclusive call is a rough fit, not a confirmed value.

The molecules below were run against Lysine-specific demethylase 5B (Homo sapiens) (UniProt Q9UGL1) (assay: Primary screen for KDM5B Histone Demethylases FDH-coupled qHTS). Details: FDH-coupled NADH fluorescence (FDH is formaldehyde dehydrogenase); activity change, negative = inhibition: at 57.7 µM (top of the series) unless noted.
UniProt Q9UGL1, sequence (Q9UGL1 whole entry, looked up): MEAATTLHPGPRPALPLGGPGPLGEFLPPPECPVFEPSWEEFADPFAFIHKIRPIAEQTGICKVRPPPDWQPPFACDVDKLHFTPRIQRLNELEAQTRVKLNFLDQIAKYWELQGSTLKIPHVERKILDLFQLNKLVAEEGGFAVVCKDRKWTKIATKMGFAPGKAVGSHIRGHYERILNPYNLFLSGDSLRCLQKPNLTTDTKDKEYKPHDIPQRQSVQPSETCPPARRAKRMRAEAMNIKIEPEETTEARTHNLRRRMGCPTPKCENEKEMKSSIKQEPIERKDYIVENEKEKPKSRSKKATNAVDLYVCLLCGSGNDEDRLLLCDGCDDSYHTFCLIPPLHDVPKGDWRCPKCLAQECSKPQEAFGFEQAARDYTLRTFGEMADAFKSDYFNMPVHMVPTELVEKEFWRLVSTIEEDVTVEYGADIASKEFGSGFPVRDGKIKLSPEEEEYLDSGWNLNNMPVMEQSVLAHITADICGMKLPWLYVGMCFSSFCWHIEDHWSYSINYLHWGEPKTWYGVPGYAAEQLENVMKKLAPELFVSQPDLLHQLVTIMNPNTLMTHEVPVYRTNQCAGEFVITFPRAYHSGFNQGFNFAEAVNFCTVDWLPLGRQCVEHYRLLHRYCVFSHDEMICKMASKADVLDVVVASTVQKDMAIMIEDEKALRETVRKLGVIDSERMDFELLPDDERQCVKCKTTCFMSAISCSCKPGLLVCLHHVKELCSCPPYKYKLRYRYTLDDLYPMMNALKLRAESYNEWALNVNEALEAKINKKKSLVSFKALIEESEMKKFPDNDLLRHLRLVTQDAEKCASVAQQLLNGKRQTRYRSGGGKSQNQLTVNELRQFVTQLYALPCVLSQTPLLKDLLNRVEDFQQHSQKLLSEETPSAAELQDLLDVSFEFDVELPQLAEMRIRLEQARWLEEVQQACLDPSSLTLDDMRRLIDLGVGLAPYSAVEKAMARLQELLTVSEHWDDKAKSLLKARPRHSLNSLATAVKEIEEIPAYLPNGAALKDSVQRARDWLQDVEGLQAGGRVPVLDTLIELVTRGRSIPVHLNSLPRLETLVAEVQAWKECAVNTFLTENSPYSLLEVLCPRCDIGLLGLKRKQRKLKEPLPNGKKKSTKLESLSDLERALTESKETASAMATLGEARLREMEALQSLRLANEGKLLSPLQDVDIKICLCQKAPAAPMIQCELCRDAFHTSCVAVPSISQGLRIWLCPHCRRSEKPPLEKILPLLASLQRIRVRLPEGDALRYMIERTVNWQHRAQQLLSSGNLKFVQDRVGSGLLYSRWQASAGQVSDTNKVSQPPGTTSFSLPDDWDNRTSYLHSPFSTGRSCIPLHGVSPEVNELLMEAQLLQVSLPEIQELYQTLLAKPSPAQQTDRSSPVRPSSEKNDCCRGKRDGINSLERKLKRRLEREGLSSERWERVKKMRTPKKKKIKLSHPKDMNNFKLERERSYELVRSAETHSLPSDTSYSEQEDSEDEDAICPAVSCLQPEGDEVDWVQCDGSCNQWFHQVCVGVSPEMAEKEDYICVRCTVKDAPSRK
In short: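 KDM5BΔAP (200 nM final) in 50 mM HEPES pH 7.5, 0.01% Tween-20 was preincubated 10 min at RT with compound over a concentration range. Substrate mix (H3K4me3 12.5 µM, α-KG 25 µM, Fe²⁺, ascorbate, NAD⁺, FDH) was added, and NADH fluorescence change over 30 min gave dose-response curves.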
Note: nearly all actives have a fitted effect of over 70% in size.
Potency is the fitted concentration of half-maximal effect; tags give direction and shape of the fitted curve.
Throughout, for activity change, negative = inhibition: 0% is about no effect.

Question: For `O=[S+]([O-])(c1ccc(Cl)cc1)c1nnn2c1nc(N1CCC(F)CC1)c1ccccc12`, which “activity change, negative = inhibition” value is on record?
Answer: The value was inactive: -26.4% [at 115 µM].

Question: For `CC(C)Oc1cccc(-c2nc(C(=O)Nc3ccc(F)cc3)cs2)c1`, which Potency is on record?
Answer: The Potency was inconclusive: 25.1 µM [inhibitor, single point].

Question: `CCOC(=O)c1cccc(NC(=O)c2oc3c(c2C)-c2nn(CC)cc2CC3)c1` was tested. Which Potency did it give?
Answer: The Potency was inconclusive: 4.47 µM [inhibitor, partial curve, poor fit].

Question: For `Cc1cccc(OCC(=O)N2CCC(Cc3nc(-c4cnccn4)no3)CC2)c1`, which “activity change, negative = inhibition” value is on record?
Answer: The value was inactive: -12.8%.

Question: For `CCOc1ccc(CCNC(=O)CSc2nnnn2-c2ccccc2)cc1OCC`, which activity change, negative = inhibition is on record?
Answer: Its activity change, negative = inhibition is inconclusive: -36.7% [inhibitor].

Question: Which Potency does the source give for `COc1ccc(Br)cc1[C@@H]1Nc2ccc(C(=O)O)cc2[C@@H]2C=CC[C@@H]21` here?
Answer: The Potency was inconclusive: 31.6 µM [inhibitor, single point].

Question: How did the Potency turn out when `CCc1nn2c(=O)cc(COC(=O)c3ccccc3NC(=O)COc3ccc(C)c(C)c3)nc2s1` was run?
Answer: The Potency was inconclusive: 5.01 µM [inhibitor, partial curve, poor fit].

Question: Which Potency does the source give for `CCCCN(CCC(=O)NCCc1ccccc1)C(=O)c1cc(C)oc1C` here?
Answer: The Potency was inconclusive: 28.2 µM [inhibitor, partial curve, poor fit].

Question: How did the Potency turn out when `CCC(=O)N(C1CCOCC1)C1CCN(Cc2ccc[nH]2)CC1` was run?
Answer: The Potency was inconclusive: 12.6 µM [inhibitor, partial curve, poor fit].

Question: How did the activity change, negative = inhibition turn out when `Cc1oc(-c2ccccc2F)nc1CN1CCC(C(=O)NCCc2ccccc2)CC1` was run?
Answer: The activity change, negative = inhibition was inconclusive: -31.7% [inhibitor].

Question: Which Potency does the source give for `CNC(=O)c1cc(-c2cccc(NC(C)=O)c2)cc2c1OCCN2Cc1cccnc1` here?
Answer: Its Potency is inconclusive: 39.8 µM [inhibitor, partial curve, poor fit].

Question: For `COc1cccc(CN2CCCN(S(C)(=O)=O)C(c3ccccc3)CC(=O)NCC2)c1` (stereo unspecified), which Potency is on record?
Answer: Its Potency is inconclusive: 39.8 µM [inhibitor, single point].

Question: How did the “activity change, negative = inhibition” value turn out when `Cc1cc(Cl)ccc1NC(=O)N1C[C@H](c2nc(-c3cccnc3)no2)[C@@H](C)C1` was run?
Answer: Its value is inactive: 2.64%.

Question: Which Potency does the source give for `COc1ccc(OC)c(Nc2sc(C(=O)c3ccccc3)c(N)c2S(=O)(=O)c2ccccc2)c1` here?
Answer: The Potency was inconclusive: 28.2 µM [inhibitor, partial curve, poor fit].

Question: Which “activity change, negative = inhibition” value does the source give for `CCCc1c(C)nc2ncnn2c1Nc1cccc(C)c1` here?
Answer: The value was inactive: 26.9%.

Question: `COc1ccc(C(=O)COC(=O)c2cc(-c3cccs3)nc3ccccc23)cc1` was tested. Which Potency did it give?
Answer: Its Potency is inconclusive: 25.1 µM [inhibitor, partial curve, poor fit].

Question: How did the Potency turn out when `Cc1ccc(NC(=O)c2cc3n(n2)CC(c2ccc(Cl)cc2)OC3)cc1C` (stereo unspecified) was run?
Answer: Its Potency is inconclusive: 25.1 µM [inhibitor, single point].

Question: With `Nc1c(C(=O)NC2CCCC2)cnn1-c1ccccc1` as the molecule, how does the “activity change, negative = inhibition” value read?
Answer: Its value is inactive: -14.7%.

Question: With `O=C(NC1CCN(c2cc(-c3ccc(F)cc3)[nH]n2)C1)c1ccc(Br)o1` (stereo unspecified) as the molecule, how does the Potency read?
Answer: The Potency was inconclusive: 8.91 µM [inhibitor, partial curve, poor fit].

Question: How did the Potency turn out when `CC(C)CNC(=O)c1ccc(N2CC3CC(C2)[C@H]2CCCC(=O)N2C3)nc1` (stereo partly specified) was run?
Answer: The Potency was inconclusive: 20 µM [inhibitor, partial curve, poor fit].

Question: `Nc1nccnc1C(=O)NCc1ccc(CN2CCCCC2)cc1` was tested. Which Potency did it give?
Answer: The Potency was inconclusive: 22.4 µM [inhibitor, partial curve, poor fit].

Question: Which “activity change, negative = inhibition” value does the source give for `O=C1CCN(C(=O)c2ccsc2)CCCOCCN1` here?
Answer: Its value is inactive: 17.3%.

Question: `NC(=O)C1=C(Nc2ccc3ccccc3c2)c2ccccc2S1(=O)=O` was tested. Which Potency did it give?
Answer: Its Potency is inconclusive: 25.1 µM [inhibitor, single point].

Question: How did the Potency turn out when `Cc1cc(/C=C(/C#N)c2nc3ccccc3[nH]2)cc(C)c1OCc1ccccn1` was run?
Answer: The Potency was inconclusive: 22.4 µM [inhibitor, partial curve, poor fit].

Question: Which Potency does the source give for `c1ccc(CCc2nc3nccc(-c4ccco4)n3n2)cc1` here?
Answer: The Potency was active: 25.1 µM.

Question: `Cn1ncc2c(N3CCN(c4ccccc4F)CC3)ncnc21` was tested. Which Potency did it give?
Answer: The Potency was inconclusive: 10 µM [inhibitor, partial curve, poor fit].

Question: How did the “activity change, negative = inhibition” value turn out when `CN(C)c1ccc(-c2nnnn2[C@H]2CO[C@H]3[C@@H]2OC[C@H]3O)cc1` was run?
Answer: Its value is inactive: -13.6% [at 86.2 µM].

Question: With `O=C(Cc1c[nH]c2ncc(-c3ccoc3)cc12)N1CCOCC1` as the molecule, how does the Potency read?
Answer: The Potency was inconclusive: 35.5 µM [inhibitor, partial curve, poor fit].

Question: `CCOC(=O)c1ccc(-n2c(CCC(=O)O)ccc2-c2ccccc2)cc1` was tested. Which Potency did it give?
Answer: The Potency was inconclusive: 25.1 µM [inhibitor, partial curve, poor fit].

Question: With `CCOc1ccc(CC(=O)N2CCN(c3cc(-c4ccc(OC)cc4)[nH]n3)CC2)cc1` as the molecule, how does the Potency read?
Answer: The Potency was inconclusive: 20 µM [inhibitor, partial curve, poor fit].

Question: For `O=C1N(CCc2ccccc2)c2ccccc2C12CCN([S+](=O)([O-])c1cccs1)C2` (stereo unspecified), which Potency is on record?
Answer: Its Potency is “inactive”.

Question: With `CN(CCNC(=O)c1nn(C)c2c1COc1ccccc1-2)C1CCCCC1` as the molecule, how does the Potency read?
Answer: Its Potency is inconclusive: 39.8 µM [inhibitor, partial curve, poor fit].

Question: How did the “activity change, negative = inhibition” value turn out when `COc1ccc([C@H]2C[C@@H](O)[C@@H](O)[C@@H]2NCc2ccc(OC)nc2)cc1` was run?
Answer: The value was inactive: -21.4% [at 86.2 µM].

Question: Which Potency does the source give for `Cc1ccc(C(OCC(O)CNCc2ccc(F)cc2)c2ccccc2)cc1` (stereo unspecified) here?
Answer: Its Potency is inconclusive: 15.8 µM [inhibitor, partial curve, poor fit].

Question: For `O=C1CO[C@H]2CCN(Cc3cccs3)CC[C@@H]2N1c1ccccc1`, which Potency is on record?
Answer: The Potency was inconclusive: 44.7 µM [inhibitor, partial curve, poor fit].

Question: `O=C(Cn1nnc(-c2cccc(C(F)(F)F)c2)n1)c1c[nH]c2ccccc12` was tested. Which “activity change, negative = inhibition” value did it give?
Answer: Its value is inactive: -28%.

Question: `CNC(=O)CSc1nc(NC2CC2)c2ccccc2n1` was tested. Which “activity change, negative = inhibition” value did it give?
Answer: The value was inactive: -13.8%.

Question: With `CCN(CC)S(=O)(=O)c1ccc(-c2nc(C#N)c(NCCN3CCOCC3)o2)cc1` as the molecule, how does the Potency read?
Answer: The Potency was inconclusive: 15.8 µM [inhibitor, partial curve, poor fit].

Question: For `COCCOC(=O)C1=C(C)NC(C)=C(C(=O)OCCOC)C1/C=C/c1ccccc1OC`, which Potency is on record?
Answer: Its Potency is inconclusive: 25.1 µM [inhibitor, partial curve, poor fit].

Question: With `COc1ccc(C(=O)N2N=C(c3cccc(NS(C)(=O)=O)c3)CC2c2cccs2)cc1` (stereo unspecified) as the molecule, how does the Potency read?
Answer: Its Potency is inconclusive: 31.6 µM [inhibitor, single point].

Question: How did the Potency turn out when `COc1cc2cc(CNc3ccccc3)c(=O)n(CC(=O)Nc3ccc(C)c(Cl)c3)c2cc1OC` was run?
Answer: The Potency was inconclusive: 14.1 µM [inhibitor, partial curve, poor fit].
